Test in all cases: Primary Screen for Target Class Profiling of Small Molecule Inhibitors of Methyltransferases
Assay [1] deals with Glycine N-methyltransferase (Homo sapiens) (UniProt Q14749). Particulars: purified enzyme, MTase-Glo SAH luminescence; measured here: GNMT inhibition; at 40 µM; stronger effect = lower value. The source says: (§1) PI: Matthew D. Hall Ph.D. and Quinlin M. Hanson Ph.D.
(§2) National Center for Advancing Translational Sciences (NCATS)
(§3) National Institute of Health (NIH), Rockville, MD
(§4) Target class profiling (TCP) is a chemical biology approach amenable to investigating understudied biological targets. TCP is achieved by developing a generalizable assay platform and applying it to screen a curated set of compound libraries against representative members of a target class. Small molecule methyltransferases (SMMTase) are a subclass of methyltransferase that act on metabolites to modulate signaling pathways, metabolize xenobiotics, or balance the available methyl pool. We screened four curated libraries totaling 27,574 unique compounds against the SMMTases nicotinamide N-methyltransferase (NNMT), phenylethanolamine N-methyltransferase (PNMT), histamine N-methyltransferase (HNMT), glycine N-methyltransferase (GNMT), catechol O-methyltransferase (COMT), and guanidinoacetate N-methyltransferase (GAMT). The data generated by this TCP can be leveraged for informed tool molecule development. For example, in the associated publication we identified a chemotype of HNMT-selective inhibitors. Additionally, we identified a putative SMMTase-selective inhibitor with potential as a tool molecule for studying broader methyltransferase biology.
(§5) High-through put screening assays were developed at the National Center for Advancing Translational Science (NCATS) for the enzymes NNMT, PNMT, HNMT, GNMT, COMT, and GAMT. Enzymatic activity was measured as a function of SAM cofactor conversion using the MTase Glo kit (Promega) for all enzymes. All assays were performed in 1536-well format with substrates and SAM concentrations at KM values. Enzyme concentration and assay timing were optimized for 10-20% SAM conversion. Initial screening of 27,574 compounds was done as single-point assays using the highest compound concentration (40 uM). […] These compounds were replated in 11-point dose response and assayed against NNMT, PNMT, HNMT, GNMT, COMT, GAMT, and a counter-assay. The IC50 and efficacy (maximal response) values were determined for each dose-response curve. These values are also accounted for in the area under the curve (AUC) values.
(§6) PROTOCOL TABLE (as described by Inglese J, Shamu CE and Guy RK. 2007)
(§7) SEQUENCE No. (e.g., 1, 2, 3, etc.); […] (e.g., Cells, Incubation, Reagent, etc.); VALUE; DESCRIPTION.
(§8) 1; Reagent; 2 uL; SMMTase Enzyme (2x) in reaction buffer, columns 1- 48.
(§9) 2; Reagent; 1 uL; SAM (4x) in reaction buffer, columns 1-48.
(§10) 3; Controls; 23 nL; DMSO in column 4; sinefungin in DMSO (0 uM - 40 uM) in 7-point 1:2 dilution series (n = 2) in column 2.
(§11) 4; Compounds; 23 nL; Columns 5-48.
(§12) 5; Reagent; 1 uL; Substrate (4x) in reaction buffer, columns 2-48.
(§13) 6; Time; 20-30 min; Incubation.
(§14) 7; Reagent; 1 uL; MTase-Glo reagent (5X), columns 1-48.
(§15) 8; Time; 30 min; Incubation.
(§16) 9; Reagent; 5 uL; MTase-Glo Detection reagent, columns 1-48.
(§17) 10; Time; 30 min; Incubation, luminescence evolution.
(§18) 11; Detection; Luminescence; ViewLux uHTS Microplate Imager (PerkinElmer).
(§19) NOTES (numbers refer to Sequence numbers above)
(§20) 1, 2, 5. White Medium Binding Greiner 1536-well plates (Cat #789175-F, Greiner Bio-One, Monroe, NC); Reaction buffer: 50 mM Tris, pH 8.0, 3 mM MgCl2, 1 mM EDTA, 50 mM NaCl, 1 mM DTT, and 0.1 mg/mL BSA. Evaporation was prevented by covering assay plates with metal lids containing holes to allow gas diffusion.
(§21) 1. Six SMMTase were profiled: HNMT, GNMT, PNMT, COMT, NNMT, GAMT
(§22) 5. The corresponding substrate was used for each enzyme: HNMT - 5.3 uM Histamine; GNMT - >500 uM Glycine; PNMT - 16.2 uM Norephinephrine; COMT - 13.7 uM Norephinephrine; NNMT - 3.8 uM Nicotinamide; GAMT - 2.5 uM Guanidinoacetate.6, 8, 10. Room temperature
(§23) 6. Final reaction conditions: 10 nM COMT, 5 uM SAM, 15 uM norepinephrine, 50 mM Tris, pH 8.0, 3 mM MgCl2, 1 mM EDTA, 50 mM NaCl, 1 mM DTT, and 0.1 mg/mL BSA; refer to tables 2 and S1 for specific timing.
8. […]

The target of assay [2] is Guanidinoacetate N-methyltransferase (Homo sapiens) (UniProt Q14353). Particulars: purified enzyme, MTase-Glo SAH luminescence; measured here: GAMT inhibition; at 40 µM; stronger effect = lower value.
Text: as §1, §2, §3, §4, §5, §6, §7, §8, §9, §10, §11, §12, §13, §14, §15, §16, §17, §18, §19, §20, §21, §22, §23
8. […]

For assay [3], the target named is Histamine N-methyltransferase (Homo sapiens) (UniProt P50135). Particulars: purified enzyme, MTase-Glo SAH luminescence; measured here: HNMT inhibition; at 40 µM; stronger effect = lower value.
Text: as §1, §2, §3, §4, §5, §6, §7, §8, §9, §10, §11, §12, §13, §14, §15, §16, §17, §18, §19, §20, §21, §22, §23
8. […]

Assay [4] deals with Nicotinamide N-methyltransferase (Homo sapiens) (UniProt P40261). Particulars: purified enzyme, MTase-Glo SAH luminescence; measured here: NNMT inhibition; at 40 µM; stronger effect = lower value.
Text: as §1, §2, §3, §4, §5, §6, §7, §8, §9, §10, §11, §12, §13, §14, §15, §16, §17, §18, §19, §20, §21, §22, §23
8. […]

Assay [5] concerns the target Phenylethanolamine N-methyltransferase (Homo sapiens) (UniProt P11086). Particulars: purified enzyme, MTase-Glo SAH luminescence; measured here: PNMT inhibition; at 40 µM; stronger effect = lower value.
Text: as §1, §2, §3, §4, §5, §6, §7, §8, §9, §10, §11, §12, §13, §14, §15, §16, §17, §18, §19, §20, §21, §22, §23
8. […]

SMILES strings stand for the structures. The list shows a part of the results. The main result of the screen is listed elsewhere. These columns were measured beside it and carry no call.
On the % scale 0 is the no-effect control and ±100 the full control effect.

As to `CCC1=C(C)CN(C(=O)NCCc2ccc(S(=O)(=O)NC(=O)NC3CCC(C)CC3)cc2)C1=O` (stereo not given), the activity change, negative = inhibition is 4.61% in assay [1]; -4.05% in assay [2]; 4.32% in assay [3]; -20.7% in assay [4]; -7.37% in assay [5].

In the case of `OC/C=C/c1ccc(O[C@@H]2O[C@H](CO)[C@@H](O)[C@H](O)[C@H]2O)cc1`, the activity change, negative = inhibition in assay [1] was 0%; in assay [2], -5.7%; in assay [3], 5.45%; in assay [4], -18.6%; in assay [5], -15%.

For `CC1CCCCC1NC(=O)C1(C)Cn2c(nc3ccccc32)C(=O)N1Cc1ccco1` (stereo not given), the activity change, negative = inhibition in assay [1] is -10.2%; in assay [2], 0.174%; in assay [3], -4.07%; in assay [4], -14.4%; in assay [5], -3.23%.

For the molecule `Cc1[nH]cnc1C1CCN(c2nc3cccc4c3n2CCC4=O)CC1`, the activity change, negative = inhibition was -2.6% in assay [1]; 7.1% in assay [2]; -50.1% in assay [3]; -20.8% in assay [4]; 3.61% in assay [5].

Take `CCC(C)NC(=O)c1ccc2c(=O)n(C)c3nn(CC(=O)c4ccc(F)cc4)c(=O)n3c2c1` (stereo not given): the activity change, negative = inhibition in assay [1] was determined as 4.08%; in assay [2] it was 0.375%; in assay [3] it was 5.39%; in assay [4], 3.34%; in assay [5], 6.08%.

As for `CC(C)c1cc(C(=O)N2C[C@@H](C)[C@](O)(C3CC3)C2)nc2ncnn12`, the activity change, negative = inhibition in assay [1] is -0.506%; in assay [2], -2.88%; in assay [3] it was 1%; in assay [4], 4.71%; in assay [5] it was -1.4%.

As for `COc1ccc(-c2cc3n(n2)CC(C)(C(=O)NCc2ccccc2OC)N(c2cc(C)cc(C)c2)C3=O)cc1` (stereo not given), the activity change, negative = inhibition in assay [1] is 2.72%; in assay [2], 5.35%; in assay [3], 0.366%; in assay [4], 0.447%; in assay [5], -3.5%.

Take `CCCCC(=O)N1c2ccccc2NC2=C(C(=O)CCC2)C1c1ccccc1Cl` (stereo not given): the activity change, negative = inhibition in assay [1] was -29.8%; in assay [2], 6.28%; in assay [3], 6%; in assay [4], -22.2%; in assay [5] it was -2.96%.

On to `CCC(O)C(C)C1CCC(C(C)C(=O)O)O1` (stereo not given), for which the activity change, negative = inhibition is -2.89% in assay [1]; -4.81% in assay [2]; 4.33% in assay [3]; -12.6% in assay [4]; -10.8% in assay [5].

Take `Cc1ccc(N2CCN(CCC3NC(=O)c4ccccc43)CC2)cc1C` (stereo not given): the activity change, negative = inhibition in assay [1] was 0.251%; in assay [2], -5.24%; in assay [3], -0.376%; in assay [4], -15.8%; in assay [5], -9.34%.

As for `CC(=O)Nc1c2n(c3ccc(F)cc13)CC(C)(C(=O)NC1CCCC1)N(Cc1ccccc1C)C2=O` (stereo not given), the activity change, negative = inhibition in assay [1] is -3.13%; in assay [2], 1.64%; in assay [3], -4.45%; in assay [4] it was -2.69%; in assay [5], -6.96%.

Take `COc1cccc(CN2C(=O)c3cc4sccc4n3CC2(C)C(=O)NC2CCCCC2C)c1` (stereo not given): the activity change, negative = inhibition in assay [1] was 1.84%; in assay [2], 0%; in assay [3], 6.57%; in assay [4] it was -8.98%; in assay [5], -1.03%.

Turning to `CC1CCN(S(=O)(=O)c2ccc3c(c2)oc(=O)n3CC(=O)N2CCN(c3ccccc3F)CC2)CC1`, the activity change, negative = inhibition in assay [1] is -7.97%; in assay [2], 0.101%; in assay [3], -9.18%; in assay [4] it was -12.2%; in assay [5] it was -7.07%.

As to `O=S(=O)(Nc1ccccc1N1CCCCC1)c1ccc(Cl)s1`, the activity change, negative = inhibition is -0.372% in assay [1]; 1.1% in assay [2]; 2.2% in assay [3]; -1.46% in assay [4]; -3.49% in assay [5].

Turning to `O=C(Nc1cc(C2CC2)nn1-c1ccccc1)c1ccc(C(F)(F)F)cc1`, the activity change, negative = inhibition is -7.7% in assay [1]; -7.75% in assay [2]; -3.14% in assay [3]; -10.6% in assay [4]; -4.9% in assay [5].

The values are drawn from PubChem BioAssay AID1745853 (National Center for Advancing Translational Sciences (NCATS), 2022).
